B1: tRNA (parent)
chain: CUCUCGGUAGCCAAGUUGGUUUAAGGCGCAAGACUUUAAUUUAUCACUACGAAAUCUUGAGAUCGGGCGUUCGACUCGCCCCCGGGAGAUUUUUUCCUCGAGCAA

The results in this text go back to the RNAGym collection of RNA variant scans (doi:10.1101/gad.245936.114).

Variants at the background level are over-represented here. A value given as a limit tells only on which side of the number the result lay.

The data set covers variants of B1. Nature of the data set: nonsense suppression (GFP-seq) (ratio to wild type); higher = more function; SUP4oc tRNA, yeast GFP reporter sort-seq. In short, it runs like this: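 Yeast were grown in raffinose/galactose medium with 80 mg/L adenine, each strain bearing a genome-integrated ochre-suppressor tRNA variant from a ~3% random-mutation library, a galactose-driven GFP ochre reporter, and RFP. After sorting into GFP/RFP bins, every bin was sequenced on an Illumina platform at phred ≥30. The GFPSEQ value, a measure of nonsense suppression, is the weighted bin median GFP/RFP relative to the unmutated parent tRNA, using each variant's estimated cell share per bin as the weight. Only variants with ≥100 reads and ≥30 cells were included.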
For the variant CUCUCGGUGGCCAAGUUGGUUUAAGGCGCAGGACUUUAAUUUAUCACUACGAAAUCUUGAGAUCGGGCGUUCGACUCGCCCCCGGGAGAUUUUUUCCUCGAGCAA [A9G A31G], the nonsense suppression was found to be 0.259. The result for CUCUCGGUAGCCAAGUAUGUUUAAGGCGUAAGACAUUAAUUUAUCACUACGAAAUCUUGAGAUCGGGCGUUCGACUCGCCCCCGGGCGAUUUUUUCCUCGAGCAA [U17A G18U C29U U35A A87C] reads not above 0.026; that for GUCUCGGUGGCCAAGUUGGUUUAAGGCGCAAGACUUUAAUUUAUCACUACGAAAUCUUGAGAUCGGGUGUUCGACUCGCCCCCGGGAGAUUUUUUCCUCGAGCAA [C1G A9G C68U], not above 0.026. With CUCUCGGUAGCCAAGUUGGUUUAAGGCGCAAGACUUUAAUUUAUCACUACGAAAUCUUCAGAUCGGGCGAUCGACUCGCCCCCGGGAGAUUUUUUCCUCGAGCAA [G59C U70A], the nonsense suppression is not above 0.026.

On to CUCUCGGUAGCCAAGUUGGUGUAAGGCGCAAGAAUUUAAUUUAUCACUACGAAAUCUUGAGAUCGGGCGUUCGACUCGCCCCCGGGAGAUUUUUUCCUCGAGCAA [U21G C34A], for which the nonsense suppression was not above 0.026.

Consider CUCUCGGUAGCCAAGUUGGUUAAAGGCGCAAGACUUUAAUUUAUCACUACGAAAUCUUGAGAUCGGGCGUUCGACUCGCCCCCGGGAAAUUUUUUCCUCGAGCAA [U22A G88A], for which the nonsense suppression is not above 0.026. The result for CUCUCGUUUGCCAAGUUGGUUUCAGGCGCAAGAGUUUAAUUUAUCACUACGAAAUCUUGAGAUCAGUCGUUCGACUCGCCCCCGGGAGAUUUUUUCCUCGAGCAA [G7U A9U A23C C34G G65A G67U] reads not above 0.026; that for CUCUCGGUAGCCAAGUUGGUUUAAGGCGCGAGACUUUAAUUUAUCACUACGAAAUCUUGAGAUCGGGCUUUCGACUCGCCCCCGGGAGAUUUUUUCCUCGAGCAA [A30G G69U], not above 0.026.

As for CUCCCGGUAGCCAAGUUGGUUUAACGCGCAAGACUUUAAUUUAUCACUACGAAAUCUUGAGAUCGGGCGUUCGACUCGCCCCCGGGAGAUUUUUUCCUCGAGCAA [U4C G25C], the nonsense suppression is 0.723. Consider CUCUCGGUAGCCAAGUUGGUUUAAGGCGCAAGACUUUAAUUUAUCACUACGAACUCUUGAGAUCGGGCGUUCGACUCGCCCCCGCGAGAUUUUUUCCUCGAGCAA [A54C G85C], for which the nonsense suppression turned out to be 0.0904.

Consider CUCUCGGUAGCCAAGUUGGUUUAAGGGGCAAGACUUUAAUUUAUCACUACGAAAUCUUCAGAUCGGGCGUUCGACUCGCCCCCGGGAGAUUUUUUCCUCGAGCAA [C27G G59C], for which the nonsense suppression was not above 0.026. CUCUCGGCAGCCAAGUUGGGUUAAGGCGCAAGACUUUAAUUUAUCACUACGAAAUCUUGAGAUCGGGCGUUCGACCCGCCCCCGGGAGAUUUUUUCCUCGAGCAA [U8C U20G U76C]: the nonsense suppression was not above 0.026.

On to GUCUCGGUAGCCAAGUUGGUUUAAGGCGCAAGACUUUAAUUUAUCACUACGAAAUCAUGAGAUCGGGCGUUCGACUCGCCCCCGGGAGAUUUUUUCCUCGAGCAA [C1G U57A], for which the nonsense suppression was not above 0.026.

On to CUCUCGGUAACCAAGUUGGUGUAAGGCGCAAGACUUUAAUUUAUCACUACGAAAUCUUUAUCUCGGGCGUUCGACUCGCCCCCGGGAGAUUUUUUCCUCGAGCAA [G10A U21G G59U G61U A62C], for which the nonsense suppression is not above 0.026. The result for CUCUCGGUAGCUAAGUUGGUUUAAGGCGCAAUACUUUAAUUUAUCACUACGAAAUCUCGAUAUCGGGCGUUCGACUCGCCCCCGGGAGAUUUUUUCCUCGAGCAA [C12U G32U U58C G61U] reads not above 0.026; that for CUCUCGGUAGCCGAGUUGGUUUAAGGUGCAAGACUUUAAUUUAUCACUACGAAAUCUUGAGAUCGGGCUUUCGACUCGCGCCCUGGAGAUUUUUUCCUCGAGCAA [A13G C27U G69U C80G G84U], not above 0.026. The result for CUCUCGGUAGCCAAGUUGGUUUAGGGCGCAAAACUUUAAUUUAUCACUACGAAAUCUUGAGAUCGGGCGUUCGACUCGCCCCCGGGUGAUUUUUUCCUCGAGCAA [A24G G32A A87U] reads not above 0.026. For CUCUCGAUAGCCAAGUAGGUUUAAGGCGCAAGACUUUAAUUUAUCACUACGAAAUCUUGAGAUCGGGCGUUCGACUCGCCCCAGGGAGAUUUUUUCCUCGAGCAA [G7A U17A C83A] the value was not above 0.026. CUCUCGGUAGCCGAGUUGGUUUAAGGCGCAAGACUUUAAUUUAUCACUACGAAAUCUUGAGAUCGGGCGUUCGACUCGCCCCCGGGGAAUUUUUUCCUCGAGCAA [A13G A87G G88A]: the nonsense suppression was not above 0.026. For CUCCCGGUAGCCAAGUUGGUUUAAGGCGCAAGACUUUAAUUUAUCACUACGAAAUCUUGAGAUCGGGCGUUCGACUCGCCCCCGCGAGAUUUUUUCCUCGAGCAA [U4C G85C] the value was not above 0.026. The result for CUCUCGGUAGCCAAGUUGGUUUAAGGCGCAAGACUUUAAUUUAUCACUACGAAAUCUUGAGAUCGGGCCUUCGACACGCCCCCGGGAGAUUUUUUCCUCGAGCAA [G69C U76A] reads not above 0.026. The result for CUCUCGGUAGCUAAGUUGGUUUAAGGCGCAAGACUUUAAUUUAUCACUACGAAAUCUUGAGAUCGGGCGUUCGACGCGCCCCCGGGAGAUUUUUUCCUCGAGCAA [C12U U76G] reads 0.0906; that for CUCUCGGUAGCCAAGUUGGUUUAAGGCGCAAGACUUUAAUUUAUCACUACGAAAUCUUGAGCUCGGGCGUUCGACUCGCCCCCGGGAUAUUUUUUCCUCGAGCAA [A62C G88U], not above 0.026; that for CUCUCGGUAGCCAAGUUGGUUUACGGCGCAAGAGUUUAAUUUAUCACUACGAAAUCUUGAGAGCGGGCGUUCGACCCGCCCCCGGGAGAUUUUUUCCUCGAGCAA [A24C C34G U63G U76C], not above 0.026. Take CUCUCGGUAGCCAAGUUGGUUUAAGGCGCAAGACUUUAAUUUAUCACUACGAAGUCUUGAGAUCGGGCGUUCUACUCGCCCCCGGGAGAUUUUUUCCUCGAGCAA [A54G G73U]: the nonsense suppression is not above 0.026. In the case of CUCUCGGUAGCCAAGUUGGUUUGAGGCGCAAGACUUUAAUUUAUCACUACGAAAUCUGGAGAUCGGGCGUUCGACUCGCCCCCGGGAGAUUUUUUCCUCGAGCAA [A23G U58G], the nonsense suppression was not above 0.026. The result for CUCUCGGUAGCCAGGUUGGUUUAAGGCGCAAGACUUUAAUUUAUCACUACGAAAUCUUGAGAUGGGGCGUUCGACUCGCCCCCGGGGGAUUUUUUCCUCGAGCAA [A14G C64G A87G] reads not above 0.026.
